Test results taken from PubChem BioAssay AID652154 (Broad Institute, 2013).
Several values for one entry are separate records, joined by “and”; a condition that tells them apart may be missing. Equal entries are not always repeated. Hit rate of the full screen: of about 360,000 compounds, about 4,200 (1.2%) were called active. The shares of active, inactive and inconclusive entries below differ from those in the screen.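 Rule for the calls: active = mean replicate inhibition at least 60% with every replicate also reaching 60%; inconclusive = only one of the two criteria is met; inactive = mean below 60% and not all replicates reaching 60%.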 Some structures have more than one record in an assay (separate samples or runs), and their calls can disagree.

assay: inhibitors of PAX8-driven TPO luciferase reporter, primary screen, RMG-I cells, single concentration (AID 652154); settings: SteadyGlo, 24 h, at 12.6 µM, active compounds read high;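 note: luciferase light reporting Pax8 driven TPO promoter activity; plate controls were median of neutral control wells for no effect and mitoxantrone controls for full effect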

SMILES | inhibition
C[C@H]1CCCCO[C@@H](CN(C)Cc2ccc(C(=O)O)cc2)[C@@H](C)CN([C@@H](C)CO)C(=O)c2cc(NC(=O)Nc3ccc(C(F)(F)F)cc3)ccc2O1 | inactive: 2.9%
Cc1onc(C(=O)N2CCC(Cc3ccccc3)CC2)c1[N+](=O)[O-] | inconclusive: 66.5%
Cc1cc2c(cc1C)C(c1cc(Br)ccc1F)CC(=O)N2 (centres undefined) | inactive: 8.73%
O=C(CCc1ccccc1)Nc1ccnn1C1CCN(Cc2ncc[nH]2)CC1 | inconclusive: 63.9%
C[C@@H]1CN([C@@H](C)CO)S(=O)(=O)c2ccc(-c3ccccc3)cc2O[C@H]1CN(C)Cc1cccnc1 | inconclusive: 61.2%
Cc1ccc(S(=O)(=O)N(C)C[C@H]2OCCCC[C@@H](C)Oc3ccc(N(C)C)cc3C(=O)N([C@@H](C)CO)C[C@H]2C)cc1 | inconclusive: 60.1%
COc1ccc(S(=O)(=O)N(C)C[C@H]2OCCCC[C@H](C)Oc3ccc(NS(=O)(=O)c4ccc(C)cc4)cc3C(=O)N([C@@H](C)CO)C[C@@H]2C)cc1 | inconclusive: 63.9%
Cc1ccc(NC(=O)C2CCN(c3ncnc4sc(C)c(C)c34)CC2)cc1S(=O)(=O)N(C)C | inactive: 32.8%
C[C@H](CO)N1C[C@H](C)[C@H](CN(C)C(=O)NC2CCCCC2)Oc2ncc(C#Cc3cccc(F)c3)cc2C1=O | inactive: 10.4%
Cc1ccc(CN2C(=O)[C@@H]3Cc4c([nH]c5ccccc45)C(C)(C)N3C2=O)cc1 | inconclusive: 63.8%
O=C(NC(=S)NCc1cccnc1)c1ccccc1 | inconclusive: 61.2%
CS(=O)(=O)Nc1cccc(NC(=O)C2Cc3c(-c4ccccc4)ccnc3O2)c1 (centres undefined) | inconclusive: 60.5%
Oc1cccc(C=Nc2cccc3ccccc23)c1O | inconclusive: 61.5%
Cc1nn(-c2ccccc2)c(C)c1-c1cc(C(=O)N/N=C/c2ccc(O)cc2)[nH]n1 | inactive: 51.8%
COc1cccc(-c2ccc3c(c2)[C@H]2[C@H](CCN2C(=O)C2CCCC2)[C@H](CO)N3)c1 | inconclusive: 65.2%
CC(C)c1ccc(/C=C/C(=O)N2CCc3ccccc3C2)cc1 | active: 67.1%
O=C(CCCN1C(=O)/C(=C/c2cccc(Br)c2)SC1=S)Nc1cccnc1 | active: 94.1%
Cc1ccc(CSC(Nc2ccc(F)cc2)=C(C#N)C#N)cc1 | inconclusive: 60.7%
Cc1ccc(-n2nc3c(N4CCC(C(=O)NCCc5ccco5)CC4)nnc(C)c3c2C)cc1 | inconclusive: 62%
C[C@@H]1CN([C@@H](C)CO)C(=O)c2cc(NC(=O)NC3CCCCC3)ccc2O[C@@H](C)CCCCO[C@@H]1CN(C)S(=O)(=O)c1cccs1 | inactive: -0.414%
CCC(=O)N[C@H]1CC[C@@H](CCn2cc(C3CC3)nn2)O[C@H]1CO | inactive: -11.2%
CCCN(C)C[C@H]1OCCCC[C@H](C)Oc2ccc(NC(=O)C3CCCCC3)cc2C(=O)N([C@@H](C)CO)C[C@H]1C | inactive: -4.8%
CC1C/C(=C/c2cccs2)C(=O)/C(=C/c2cccs2)C1 (centres undefined) | active: 71.6%

SMILES | inhibition
O=[N+]([O-])c1ccc(NN=Cc2cccc3ccccc23)nc1 | inactive: -9.76%
Cc1ccc2c(CC(=O)OC(C)C(=O)Nc3ncc(Cl)cc3Cl)coc2c1 (centres undefined) | inconclusive: 60.4%
NC(=O)[C@@H]1CC2(CC(c3cccc(NC(=O)COc4ccc(Cl)cc4)c3)=NO2)CN1C(=O)COc1ccc(Cl)cc1 (some centres undefined) | inconclusive: 61.4%
Cc1cccc(S(=O)(=O)N2C[C@H](O)COC[C@@H]3O[C@H](CC(=O)Nc4ccc(-c5ccccc5)cc4)CC[C@H]32)c1 | inconclusive: 63.3%
Cc1c(NC(=O)CC#N)c(=O)n(-c2ccccc2)n1C | inactive: 4.69%
CC(=O)OCCNc1cc(Sc2nc3ccccc3[nH]2)c2nonc2c1[N+](=O)[O-] | inactive: -7.49%
CN(CC(=O)Nc1ccc(F)c(Cl)c1)S(=O)(=O)c1ccc2c(c1)n(C)c(=O)c(=O)n2C | inactive: -26.9%
Cc1nnsc1C(=O)N/N=C/c1ccc2ccccc2c1O | inconclusive: 60.4%
C[C@H](CO)N1C[C@H](C)[C@@H](CN(C)C(=O)Cc2ccccc2)Oc2cc(C#Cc3ccccc3F)ccc2S1(=O)=O | active: 73.5%
COc1cccc(C#Cc2ccc([C@@H]3[C@@H](CO)N4C(=O)CN(C(=O)Cc5ccccc5)C[C@@H]34)cc2)c1 | inconclusive: 60.5%
CCOC(=O)C1=C(C)Nc2nc3ccccc3n2C1c1ccc(O)cc1 (centres undefined) | inactive: -10.1%
N#C[C@H]1[C@@H](c2ccc(C#CC3CCCC3)cc2)[C@@H](CO)N1S(=O)(=O)c1ccccc1 | inconclusive: 60.3%
COc1ccc(Cc2c(-c3cccc(Cl)c3)nc3c(C)cc(Br)cn23)c(C)c1 | inconclusive: 63.7%
O=C(NCC[C@H]1CC[C@H](NS(=O)(=O)c2cccc(F)c2)[C@H](CO)O1)C1CC1 | inactive: 7.57%
Cc1cc(O)c(-c2cc(O)c(C)cc2O)cc1O | inconclusive: 60.1%
N#C/C(=N\Nc1cccc([N+](=O)[O-])c1)C(=O)c1ccc(Br)cc1 | active: 90.6%
C[C@@H]1CN([C@@H](C)CO)C(=O)c2c(c3ccccc3n2C)-c2ccccc2CO[C@@H]1CN(C)C(=O)Nc1cccc(Cl)c1Cl | inconclusive: 61.2%
C[C@H](CO)N1C[C@H](C)[C@H](CN(C)Cc2ccc(C(F)(F)F)cc2)Oc2ccc(NC(=O)CCCCCC(=O)Nc3ccccc3N)cc2C1=O | inconclusive: 60.6%
COc1cc(OC)cc(-c2c(C#Cc3ccsc3)c3cc(-c4ccc(C(N)=O)cc4)ccc3n2C)c1 | inconclusive: 60%
COC(=O)C[C@H]1CC[C@H]2[C@@H](COC[C@H](O)CN2CCC(F)(F)F)O1 | inactive: -4.79%
Cc1cc(C)c(S(=O)(=O)/N=C2\C=C(Nc3ccc(C(=O)O)cc3)C(=O)c3ccccc32)c(C)c1 | inconclusive: 67.4%
O=C(N/N=C/c1ccc2c(c1)OCO2)c1ccc(Cl)cc1Cl | inactive: 6%
O=[N+]([O-])c1ccc(O)c(C(C#Cc2ccccc2)N2CCOCC2)c1 (centres undefined) | inactive: -90%

SMILES | inhibition
COc1ccc(S(=O)(=O)N(C)C[C@H]2OCCCC[C@H](C)Oc3ccc(NS(=O)(=O)c4ccc(Cl)cc4)cc3C(=O)N([C@H](C)CO)C[C@@H]2C)cc1 | inconclusive: 62%
Cc1cc(NC(=O)c2ccc(Cl)c(S(=O)(=O)N3CCOCC3)c2)no1 | inactive: 1.44%
Cc1[nH]n(-c2ccccc2)c(=O)c1C=Nc1cccc2cccnc12 | inconclusive: 70.3%
C[C@H]1CCCCO[C@@H](CN(C)S(=O)(=O)c2ccc(Cl)cc2)[C@@H](C)CN([C@@H](C)CO)C(=O)c2cc(NS(=O)(=O)c3ccccc3)ccc2O1 | inconclusive: 63.2%
Cn1cnc(S(=O)(=O)N2C[C@@H]3N[C@H](C2)C3c2ccc(-c3ccccc3F)cc2)c1 (some centres undefined) | active: 77.5%
Cc1nc2ccc(-c3nc4ccc(N)cc4[nH]3)cc2[nH]1 | active: 69.3%
CN(C)CCC1(C2=CCCC2)CC/C(=C/c2ccc(Cl)cc2)C1=O (centres undefined) | inactive: 36.4%
COc1ccc([Si](C)(C)[C@@H]2[C@@H](CCO)O[C@]3(C(=O)N(Cc4cccc(N5CCOC5=O)c4)c4ccccc43)[C@H]2C)cc1 | active: 102%
CCOC(=O)C1=C(COCCN)NC(C)=C(C(=O)OC)C1c1ccccc1Cl (centres undefined) | inactive: -6.36% and inactive: -4.37% and inactive: -11.1%
C[C@H]1CCCCO[C@H](CN(C)S(=O)(=O)c2cccs2)[C@@H](C)CN([C@@H](C)CO)C(=O)c2cc(NS(=O)(=O)c3ccc(Cl)cc3)ccc2O1 | inconclusive: 63.5%
COc1cccc(C(=O)N2C[C@H]3[C@@H](c4ccccc42)[C@H](CO)N3C(=O)c2ccccc2)c1 | inactive: 10.5%
CCc1csc(N2[C@@H](C#N)[C@@H](c3ccc(C#Cc4ccc(F)cc4)cc3)[C@@H]2CO)n1 | inconclusive: 61.7%
C[C@@H]1CN([C@@H](C)CO)C(=O)Cc2cc(NC(=O)Nc3ccccc3)ccc2O[C@@H]1CN(C)Cc1ccc(Cl)c(Cl)c1 | inconclusive: 64.1%
CCCNC(=O)c1ccc(S(=O)(=O)c2ccc(OC)cc2)c([N+](=O)[O-])c1 | inconclusive: 60.5%
C[C@H]1CN([C@@H](C)CO)C(=O)Cc2cc(NC(=O)CCC(F)(F)F)ccc2O[C@H]1CN(C)S(=O)(=O)c1ccc(Cl)cc1 | inconclusive: 63.1%
O=C(/C=C/c1ccc([N+](=O)[O-])s1)N1CCCC1 | inconclusive: 60.8%
O=C(C(=O)N(Cc1ccccc1)Cc1ccccc1)c1c(-c2ccccc2)[nH]c2ccccc12 | active: 88.4%
CC(C)c1nnc(NC(=O)CCS(=O)(=O)c2ccccc2)s1 | inconclusive: 65.5%
COC(=O)[C@]1(Cc2ccccc2CN=[N+]=[N-])N=C(c2ccc(OCCCO)cc2)O[C@@H]1c1ccccc1 | inconclusive: 60.2%
CNC[C@H]1Oc2ccc(NC(=O)NC(C)C)cc2CC(=O)N([C@@H](C)CO)C[C@@H]1C | active: 91.1%
Nc1ncc(-c2nnnn2-c2ccc(Cl)cc2)c(-c2ccc(Cl)cc2)n1 | inconclusive: 65.6%
C[C@@H]1CN([C@@H](C)CO)S(=O)(=O)c2ccc(C#Cc3ccncc3)cc2O[C@H]1CN(C)C(=O)C1CCCCC1 | inconclusive: 62.5%
C[C@@H]1CN([C@H](C)CO)C(=O)Cc2cc(NS(=O)(=O)c3cccs3)ccc2O[C@@H]1CN(C)S(=O)(=O)c1cn(C)cn1 | inactive: -28.8%
